Test results: PubChem BioAssay AID1508623 (National Center for Advancing Translational Sciences (NCATS), 2021)
Among all 48,000 compounds or so, about 450 (0.94%) were called active. Inconclusive results (about 19%) are left out. The call rests on the fitted dose curve; in most records, active means well fitted inhibition curve with a large enough effect; inconclusive means small, poorly fitted or top-dose-only effect; inactive means no such curve, though single readings can be large or run the other way. Some of the results follow.

Test: Primary qHTS for Identification of Small Molecule Inhibitors of Huntingtin Promoter Activity; further: nearly all actives have a fitted effect of over 50% in size
Conditions: HEK293 HTT promoter firefly luciferase reporter (activity 0% = vehicle and -100% = no light), 24 h; series mostly up to 57.5 µM; activity change, negative = inhibition: at the top concentration
Procedure, shortened: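 Firefly luciferase readout (Dual-Glo, 10 min RT) after 24 h, 37 °C compound exposure (final up to 57.5 uM) of HEK293 reporter cells cultured 24 h beforehand; PTC124 at 50 uM final as control inhibitor; activity scaled vehicle 0%, zero RLU -100%.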

Activity change, negative = inhibition, inactive:
O=C(COc1ccc(Cl)cc1)NCC(c1ccco1)S(=O)(=O)c1ccccc1 (stereo not drawn) -20.3%, COc1ccccc1NC(=O)c1sc2nc3c(c(C(F)(F)F)c2c1N)CN(C(C)=O)CC3 -24.6%, Cc1nn(-c2ccc(N3CCOCC3)nn2)c(C)c1CCC(=O)NCc1ccccc1 -12.4%, Cc1cc(C)c(NC(=O)CSc2n[nH]c(-c3ccccc3Cl)n2)c(C)c1 -20.6%, O=C(O)c1ccccn1 6.36%, CN(C)CCNC(=O)CN1N=C(c2ccccc2)CCC1=O 7.51%, COc1ccc(NC(=O)c2cnc(Nc3ccc(C)c(Cl)c3)c3ccccc23)c(OC)c1 -3.31%, CC(=O)Oc1ccc(C(=C2CCCCC2)c2ccc(OC(C)=O)cc2)cc1 -6.48%, CCCC(=O)N1CCc2cc(OC)c(OC)cc2C1COc1ccc2c(C)cc(=O)oc2c1 (stereo not drawn) -4.12%, COc1ccc2c(c1)CC(C(=O)NCCN1CCN(c3ccccc3F)CC1)CO2 (stereo not drawn) -17.2%, COc1ccc(NC(=O)Cn2c(=O)cc(C)c3c(C)nn(C)c32)cc1 -26.7%, CCOc1ccc(NC(=O)Cn2cc(C(=O)c3ccc(CC)cc3)c(=O)c3cc4c(cc32)OCO4)cc1 -7.33%, Cc1ccc(Cl)cc1N1CCN(C(=O)c2cnn(C(C)(C)C)c2C2CCN(C(=O)OC(C)(C)C)CC2)CC1 -15.3%, CCC(Sc1ncc(S(=O)(=O)c2ccc(C)cc2)c(=O)[nH]1)C(=O)Nc1cc(C)ccc1C (stereo not drawn) -8.42%, CCc1ccc(NC(=O)CN2CCN(C3CCCCC3)C(=O)C2=O)cc1 8.63%, O=C(Cn1cc(SCc2ccc(Br)cc2)c2ccccc21)N1CCCCC1 -6.25%, Cc1ccc(/C=C(\C#N)C(=O)Nc2ccc(Br)cc2)o1 88.3%, Cn1nnnc1SCCCNCc1cccc(OCc2ccccc2F)c1 -3.19%, O=C(Nc1c(C(=O)c2ccc(Cl)cc2)oc2ccccc12)c1cc(=O)c2ccccc2o1 -10.8%, CCc1nc2ccc(C(=O)NCc3ccc(N(C)C)cc3)cc2nc1CC -21.4%, Cc1ccc2oc(=O)c(S(=O)(=O)c3ccc(F)cc3)cc2c1 -10.9%, COc1ccc(NC(=O)c2ccco2)cc1NC(=O)c1ccc(C)c(C)c1 -17%, CCN(C(=O)CSc1nc2ccccc2n1Cc1ccc(C(=O)OC)cc1)c1ccccc1 -21.8%, COc1ccc(CCN2C(=O)NC(NC(=O)c3ccccc3OC)(C(F)(F)F)C2=O)cc1OC (stereo not drawn) -28.9%, Cc1cccc(C)c1Nc1c(-c2ccc(N3CCOCC3)cc2)nc2ncccn12 -14.9%, CNC(=O)c1c(NC(=O)c2cc(=O)c3cc(C)c(C)cc3o2)sc2c1CCCC2 -13.7%, CCN(CC)CCN(C(=O)c1ccco1)c1nc2c(C)c(C)ccc2s1 2.27%, COc1ccccc1CNC(=O)Cn1c(-c2ccc(F)cc2)cc(C(C)=O)c1C -13.7%, CC(=O)Nc1ccc(NC(=O)CN2C(=O)CC(c3ccco3)Sc3ccccc32)cc1 (stereo not drawn) -13.1%, Cc1ccc(-c2cc(C(F)(F)F)n3nc(-c4cccc(Br)c4)cc3n2)cc1 -11.2%, COc1ccc(N2CCN(C(=O)CN3CCSc4ccccc43)CC2)cc1 -31.7%, CC1(C)OC2CC3C4CC(F)C5=CC(=O)C=CC5(C)C4C(O)CC3(C)[C@]2(C(=O)CO)O1 (stereo partly drawn) 1.24%, CCCCNC(=O)CC1Nc2cc(C)c(C)cc2NC1=O (stereo not drawn) 10.5%, COc1ccccc1NC(=O)c1nn(C)c2c1CS(=O)(=O)c1ccccc1-2 -4.2%, COc1ccc(Cl)cc1NC(=O)Nc1c[nH]c(=O)[nH]c1=O 9.83%, Cc1c(Cl)cccc1N1CCn2c1nc1c2c(=O)n(CC(=O)O)c(=O)n1C -2.84%, O=C(O)C1CCCN(CCC=C(c2ccccc2)c2ccccc2)C1 (stereo not drawn) -0.978%, O=C(NCCc1ccc(Cl)cc1)c1nnc(Cc2ccc(F)cc2)o1 -14.3%, O=C(CCSCc1ccc(Cl)cc1)NCCc1ccccc1 -4.35%, O=C(Nc1ccc(-c2nc3ccccc3o2)c(O)c1)c1cc(Cl)ccc1Cl -15.8% [at 11.5 µM], O=C(NCC(c1cccnc1)N1CCc2ccccc2C1)C(=O)Nc1ccccc1F (stereo not drawn) -15.5%, CCN(C(=O)CCS(=O)(=O)c1ccc2c(c1)CCN2C(C)=O)c1cccc(C(F)(F)F)c1 -8.19%, CCN1CCc2c(sc(NC(=O)c3ccc(S(=O)(=O)N(C)C4CCCCC4)cc3)c2C(N)=O)C1 -14%, CC(=O)O[C@]1(C(C)=O)CC[C@H]2[C@@H]3C=C(Cl)C4=CC(=O)[C@@H]5C[C@@H]5[C@]4(C)[C@H]3CC[C@@]21C -6.53%, COc1cc(C(=O)N2CCNC(=O)C2CC(=O)Nc2ccc(C)c(C)c2)cc(OC)c1OC (stereo not drawn) -5.33%, Cc1ccccc1-c1nnc(SCC(=O)N(C)c2ccccc2)o1 46.6%, CCCCNc1nc2c(-c3cccc(C)c3)nnn2c2ccccc12 -14.5%, Cc1ccc(/C=C/c2onc(C)c2S(=O)(=O)N2CCC(C(=O)Nc3ccc(OC(F)(F)F)cc3)CC2)cc1 -20%, CCCN(CCC)C(=O)Cn1c(=O)n(CCCCCC(=O)Nc2ccccc2)c(=O)c2sccc21 -10.1%, COc1ccc2c(c1)c1c(c(=O)n(-c3ccccc3C)c(=O)n1CC(N)=O)n2C -5.54%, COC(=O)c1ccc(NC(=O)Cn2ccn3nc(-c4ccc(OC)cc4)cc3c2=O)cc1 34%, Cc1ccc(CNC(=O)CCc2c(C)nc3c(-c4ccc(F)cc4)c(C)nn3c2C)cc1 -13.7%, Cc1cccc(OCC(=O)Nc2cccc(C(=O)OCc3cc(=O)n4nc(C(C)C)sc4n3)c2)c1 20.1%, Cc1c(C(=O)OCc2ccccc2)[nH]c2c1C(=O)CC(c1ccc(N(C)C)cc1)C2 (stereo not drawn) -10.8%, Cc1nn2c3c(cnc2c1-c1ccc(Cl)cc1)C(=O)CC(c1ccc(C(C)C)cc1)C3 (stereo not drawn) -12%, Cc1ccc(S(=O)(=O)C(CNC(=O)COc2ccccc2)c2cccs2)cc1 (stereo not drawn) -27.9%, COC(=O)C1=C(C)NC(=O)NC1c1cn(-c2ccccc2)nc1-c1ccc(OC)c(Br)c1 (stereo not drawn) -15.5%, COc1cccc(-n2c(SCC(=O)c3ccccc3)nc3c([nH]c4ccccc43)c2=O)c1 1.91%, O=c1oc2cc(O)ccc2cc1-c1nc(-c2ccc(Cl)c(Cl)c2)cs1 -11%, COc1ccc(NC(=O)C(NC(=O)Cc2cccs2)c2ccc(OC)cc2)cc1 (stereo not drawn) -7.14%, Cn1c2c(c(=O)n(C)c1=O)C(c1cccc(O)c1)CC(=O)N2 (stereo not drawn) 6.13%, CCc1ccc(CN(C(=O)c2ccc(OC)cc2)C2CCS(=O)(=O)C2)cc1 (stereo not drawn) -20.5%, Cc1noc(C)c1S(=O)(=O)Nc1ccc(C(=O)Nc2ccc(C(C)C)cc2)cc1 -26.3%, COc1cc2c(cc1NC(=O)COc1ccc(Br)c(C)c1)oc1ccccc12 1.27%, CCC12CN3CC(CC)(CN(C1)C3c1cccc(OC)c1O)C2=O (stereo not drawn) -10.8%, COc1ccc(-c2c(C)c3ccc(O)c(CN4CCCCC4)c3oc2=O)cc1OC -14.4%, Cc1ccc2nc(N(Cc3cccnc3)C(=O)c3ccco3)sc2c1 27.9%, Cc1cccc(N2CCN(C(=O)c3cn(C)c4ccc(S(=O)(=O)N(C)C)cc4c3=O)CC2C)c1 (stereo not drawn) -0.777%, CCOC(=O)c1c(NC(=O)CCCOc2ccc(C)cc2)sc2c1CCC(C)C2 (stereo not drawn) -4.42%, CCOC(=O)Cn1c(=O)n(-c2ccccc2OC)c2nc(-c3ccccc3)nc(C(N)=O)c21 -18.5%, CCc1nnc(SCC(=O)Nc2ccc(Cl)cc2F)c2cc3occc3n12 6.72%, CCn1c(C(=O)NCc2ccc(C)cc2)cc2sc(Cl)cc21 -27.5%, CCOCCc1nn2c(=O)cc(COC(=O)COc3ccc(C)c(C)c3)nc2s1 2%, COc1cn(CC(=O)Nc2c(C)cc(C)cc2C)c(CN2CCCCC2)cc1=O -14.9%, CCc1ccc(NC(=O)CC2C(=O)NCCN2C(=O)c2ccccc2OC)cc1 (stereo not drawn) -11.6%, Cc1nc(SCc2cc(=O)c3cccc(F)c3[nH]2)n[nH]1 10%, CC(C)c1ccc(NC(=O)CSc2ncnc3c2sc2ccccc23)cc1 3.11%, Clc1cccc(CSc2nc(NCCc3ccccc3)c3ccccc3n2)c1 -2.37%, COc1ccccc1CNCc1ccc(C(=O)O)s1 -2.7%, COc1ccc(NC(=O)Cn2ncc3c(C)n(Cc4cccc(Cl)c4)c(C)c3c2=O)cc1 -2.33%, COc1c(C)cccc1C(=O)Nc1ccc(Cl)c(-c2nc3cc(C)ccc3o2)c1 -25.5%, COc1ccc(-c2nc3sc(CCNC(=O)Cc4ccc(Cl)cc4)c(C)n3n2)cc1 -18.5%, CC(C)CCOc1ccc(Cn2c(=O)sc3ccccc32)cc1 -14.5%, CCOc1ccc(CCNC(=O)CSc2nc3ccccc3nc2Cc2ccc(C)cc2)cc1OCC -9.07%, CC(=O)OC[C@H]1O[C@@H](n2ncc(=O)[nH]c2=O)[C@H](OC(C)=O)[C@@H]1OC(C)=O -22.9%, CCN(CC)c1ccc(C(=O)NCc2ccc3c(c2)CCN3C(=O)c2cccc(C)c2)cc1 -2.45%, CCN(CC)c1ccc(NC(=O)CN(C)S(=O)(=O)c2cccc3nsnc23)c(C)c1 -24.2%, CCOc1ccccc1NC(=O)Nc1ccc2nc(N3CCN(C)CC3)cc(C)c2c1 46.7%, Cc1ccccc1CN1C(=O)c2ccccc2Sc2ccc(C(=O)O)cc21 -7.08%, O=C(O)COCCN1CCN(C(c2ccccc2)c2ccc(Cl)cc2)CC1 (stereo not drawn), Cc1ccc(CS(=O)Cc2ccc(C(=O)NCc3ccccc3Cl)o2)cc1 (stereo not drawn) -13.1%, Cc1ccc(NC(=O)C2CCCN(c3cnccn3)C2)cc1Cl (stereo not drawn) -2.71%, Nc1nnc(SCC(=O)Nc2cccc(F)c2)s1 5.8%, COc1ccccc1C(=O)Nc1cccc(OCc2cc(=O)n3c(C)csc3n2)c1 -20.8%, O=S(=O)(c1cc(Br)c(Br)s1)N1CCN(c2ccccc2)CC1 -3.05%, COc1cccc(NC(=O)CCSc2nc(-c3ccco3)cc(C(F)(F)F)n2)c1 -16.3%, CCOc1ccc(CCNC(=O)c2cc3cc4cc(OC)ccc4nc3s2)cc1OCC -14.8%, COc1ccc(-c2noc(N3CCN(c4ccc(Cl)cc4)CC3)n2)cc1OC -4.05% [at 11.5 µM]
